PubChem BioAssay AID1346428 (National Center for Advancing Translational Sciences (NCATS), 2018)
The campaign covered roughly 48,000 compounds. About 1,200 (2.5%) were called active. Another 2% or so got no clear call; they are omitted.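 How the source made its calls: active means activation of at least 60% and not above a set upper limit (about 1 call in 100 departs from these limits); inconclusive means activation of 40% to 60%, or above that upper limit; inactive means activation under 40%.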 The list shows a part of the results.

These compounds were tested against Probable G-protein coupled receptor 32 (Homo sapiens) (UniProt O75388) (assay: qHTS for Agonists of Human Resolvin D1 Receptor DRV1). Conditions: CHO-K1 GPR32 beta-arrestin PathHunter luminescence, 90 min; at 76.9 µM; stronger effect = higher value; zero percent set by DMSO-only wells.
Chain of UniProt O75388 (O75388 whole entry, looked up): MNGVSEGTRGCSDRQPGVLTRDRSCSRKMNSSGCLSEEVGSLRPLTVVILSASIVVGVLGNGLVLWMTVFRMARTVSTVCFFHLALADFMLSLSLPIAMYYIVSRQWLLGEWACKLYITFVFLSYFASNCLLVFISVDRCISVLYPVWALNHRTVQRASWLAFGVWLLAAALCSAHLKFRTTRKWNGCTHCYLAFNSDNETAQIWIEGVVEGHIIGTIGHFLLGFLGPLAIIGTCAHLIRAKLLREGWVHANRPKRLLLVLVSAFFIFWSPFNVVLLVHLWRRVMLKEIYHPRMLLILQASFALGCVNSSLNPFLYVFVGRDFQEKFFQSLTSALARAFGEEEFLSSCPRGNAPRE
Outline: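 Cells are plated overnight, treated with compounds in DMSO for 90 minutes at 37 °C, and developed with PathHunter detection reagent for 1 hour before luminescence is read; signal reflects beta-arrestin binding to GPR32 in engineered CHO-K1 cells.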
Further: 0% is about no effect.

Row | SMILES | activation
1 | CCOc1ccc(C(c2c(O)cc(C)n(CCOC)c2=O)N2CCN(c3ccc(F)cc3)CC2)cc1 (configuration not stated) | inactive: -8.91%
2 | CCOc1ccc(-n2c(=O)c3c(C)c(C)sc3n(Cc3ccc(C(C)(C)C)cc3)c2=O)cc1 | inactive: -4.51%
3 | CC(=O)N1CCc2c(sc3c2c(=O)n(-c2cc(Cl)ccc2C)c(=O)n3C)C1 | inactive: -8.07%
4 | CCN(CC)C(=O)Cn1c(=O)n(CCCCCC(=O)NCc2ccc(C)cc2)c(=O)c2sccc21 | inactive: -8.16%
5 | CCCCNC(=O)Cn1nc(N2CCN(c3ccccc3OC)CC2)ccc1=O | inactive: -15.7%
6 | CCCCCN=C(N)N/N=C/c1c[nH]c2ccc(OC)cc12 | active: 73.5%
7 | COc1cccc(C(=O)N2CCc3cc(OC)c(OC)cc3C2COc2ccc3c(C)cc(=O)oc3c2)c1 (configuration not stated) | inactive: -7.16%
8 | CCn1cc(S(=O)(=O)c2cc(C)cc(C)c2)c(=O)c2cc(F)c(N3CCN(c4ccccc4)CC3)cc21 | inactive: -11.2%
9 | Cc1ccc(Cl)cc1N1CCN(C(=O)COc2cc(=O)n(C)c3ccccc23)CC1 | inactive: -2.54%
10 | COc1cc2c(cc1OC)C(COc1ccccc1OC)N(C(=O)c1ccc(S(=O)(=O)N(C)C)cc1)CC2 (configuration not stated) | inactive: -13%
11 | CC(=O)N1CCc2c(sc3c2c(=O)n(Cc2ccccc2)c(=O)n3Cc2ccccc2Cl)C1 | inactive: -49.6%
12 | Cc1ccc(/C=C/c2onc(C)c2S(=O)(=O)N2CCC(C(=O)N3CCN(c4cc(C)ccc4C)CC3)CC2)cc1 | inactive: -0.979%
13 | COc1ccc(Nc2nc3c(S(=O)(=O)c4ccc(C)cc4)nnn3c3ccsc23)cc1Cl | inactive: -7.7%
14 | CC1CN(C(=O)N2CCC(C(=O)NCc3cccs3)CC2)c2ccccc2O1 (configuration not stated) | inactive: 3.12%
15 | CCC1CCCCN1CCCNC(=O)c1c(O)nc2cc(C)ccn2c1=O (configuration not stated) | inactive: -21.4%
16 | COC(=O)c1cc2sc(Cl)cc2n1Cc1nc(-c2ccccc2C)oc1C | inactive: -9.19%
17 | COc1cc(-c2nc(-c3ccccc3)c(-c3ccc(Br)cc3)[nH]2)cc(OC)c1O | inactive: -3.42%
18 | CCCCN(CC)C(=O)CSc1nc2ccccc2c(=O)n1Cc1ccco1 | inactive: -1.65%
19 | COc1cccc(CNC(=O)Cn2c(=O)nc(-c3ccccc3F)c3cc(Cl)ccc32)c1 | inactive: -8.41%
20 | CC1CCN(S(=O)(=O)c2ccc3c(c2)N(CC(=O)NC(C)(C)C)C(=O)CS3)CC1 | inactive: -9.74%
21 | COc1ccc(Nc2oc(/C=C/c3cc(OC)c(OC)c(OC)c3)nc2C#N)cc1 | inactive: 4.56%

Row | SMILES | activation
22 | CCOC(=O)c1ccccc1NC(=O)CSc1cn(CC(=O)N2CCCCCC2)c2ccccc12 | inactive: -25.6%
23 | COc1ccc(S(=O)(=O)N(CC(=O)NCCc2ccccc2)c2ccc(Cl)cc2)cc1 | inactive: 8.52%
24 | COc1ccccc1C(=O)Nc1ccc(S(=O)(=O)Nc2nc(C)cc(C)n2)cc1 | inactive: -2.82%
25 | Cc1oc2ncnc(N3CCCCC3)c2c1C(=O)N1CCN(c2ccc(Cl)cc2)CC1 | inactive: 2.66%
26 | CCOc1ccc(C(=O)c2oc3ccccc3c2NC(=O)c2cc(=O)c3ccc(C)cc3o2)cc1 | inactive: 3.12%
27 | COc1ccc(NC(=O)c2ccco2)cc1NC(=O)c1cc(Br)ccc1Cl | inactive: 0.387%
28 | COc1ccc(-c2nc3c4ccccc4n(CC(=O)N4CCN(c5ccccc5F)CC4)c(=O)n3n2)cc1 | inactive: -7.62%
29 | CCc1ccc(NC(=O)CCCc2nnc3n(C(C)CC)c(=O)c4sccc4n23)cc1 (configuration not stated) | inactive: -15.2%
30 | Cc1ccc(NC(=O)CSc2nnc(NC(=O)NC3CCCCC3)s2)cc1 | inactive: 10.5%
31 | CCCCN(CC)CCNC(=O)c1nn(C)c2c1CS(=O)(=O)c1ccccc1-2 | inactive: -4.07%
32 | CCOC(=O)c1scc(-c2ccc(C)cc2)c1S(=O)(=O)N1CCN(c2ccccc2)CC1 | inactive: -11.1%
33 | Cc1cc(C)cc(NC(=O)C2CCN(c3nnc(-n4c(C)ccc4C)s3)CC2)c1 | inactive: -20.1%
34 | COc1ccc(-c2noc(COc3ccc(C)cc3C)n2)cc1OC | inactive: -22.9%
35 | CCc1cccc(NC(=O)CN(C)S(=O)(=O)c2ccc3c(c2)n(C)c(=O)c(=O)n3C)c1 | inactive: -24.2%
36 | CCOc1cc(C(=O)Nc2ccc3nc(N4CCN(C)CC4)cc(C)c3c2)cc(OCC)c1OCC | inactive: -8.25%
37 | CC(=O)c1ccc(NS(=O)(=O)c2ccc3[nH]c(=O)[nH]c3c2)cc1 | inactive: 8.79%
38 | COc1ccc(S(=O)(=O)N(CC(=O)Nc2ccc(C)cc2)c2ccc(C)cc2)cc1OC | inactive: -5.4%
39 | COc1ccc(-n2c(SCC(=O)Nc3ccc4c(c3)OCO4)nc3c([nH]c4ccccc43)c2=O)cc1 | inactive: -9.2%
40 | COc1cccc(CNC(=O)C2=C(C)C(=O)OC23CCCCCC3)c1 | inactive: -20.3%
41 | Cc1cccc(N2CCN(C(=O)CCNS(=O)(=O)c3ccc4c(c3)CCN4C(=O)C3CC3)CC2)c1C | inactive: 43.7%
42 | COc1ccc2nc(NC(=O)c3nc(S(=O)(=O)Cc4ccc(C)cc4)ncc3Cl)sc2c1 | inactive: 0.105%

Row | SMILES | activation
43 | COc1ccc(Nc2cc(C)c3cc(NC(=O)COc4cccc(C)c4)ccc3n2)cc1 | active: 72.4%
44 | O=C(CN1C(=O)c2ccccc2Sc2ncccc21)Nc1cccc(C(F)(F)F)c1 | inactive: 17%
45 | COc1ccc(Cl)cc1NC(=O)c1noc2c1CCc1ccccc1-2 | inactive: 1.68%
46 | Cc1cc(C)c(Cn2cnc3nc4c(cc3c2=O)CCCC4)c(C)c1 | inactive: -18.4%
47 | CCOc1ccccc1NC(=O)CN(c1cc(C)cc(C)c1)S(=O)(=O)c1c(C)nn(C)c1C | inactive: -13%
48 | CCc1cc(=O)oc2c(C)c(OCC(=O)Nc3ccc(S(=O)(=O)N(CC)CC)cc3)ccc12 | inactive: -7.07%
49 | CCOc1ccc2nc(Cl)c(C3CC(c4ccccc4)=NN3C(=O)CCC(=O)O)cc2c1 (configuration not stated) | inactive: -2.64%
50 | CCOc1ccc(NC(=O)N2CCC(n3c(C)nc4cccnc43)CC2)cc1 | inactive: -7.5%
51 | CCOc1ccc(C(=O)NCC(c2ccc3c(c2)OCO3)N2CCN(C)CC2)cc1 (configuration not stated) | inactive: 1.3%
52 | Cc1nn2c(C)c(C(=O)NCc3cccc(Br)c3)cnc2c1-c1ccccc1 | inactive: -3.85%
53 | CCOc1ccc(S(=O)(=O)N(CC(=O)Nc2ccc(OC)c(Cl)c2)c2ccccc2)cc1 | inactive: 5.38%
54 | Cc1ccc(-c2nnc(Nc3ccc(O)cc3)c3ccccc23)cc1S(=O)(=O)NC(C)(C)CO | inactive: -7.9%
55 | NC(=O)C(=O)N/N=C/c1ccc([N+](=O)[O-])o1 | inactive: 41.1%
56 | CCN(CC)C(=O)Cn1c(=O)n(CCCCCC(=O)Nc2ccccc2)c(=O)c2sccc21 | inactive: -15%
57 | CCOC(=O)c1sc2ncn(CC(=O)Nc3cc(C)cc(C)c3)c(=O)c2c1C | inactive: -6.41%
58 | COC(=O)c1ccccc1NC(=O)Cn1c(=O)cc(-c2ccccc2)c2c(C)nn(C)c21 | inactive: -11.6%
59 | CC(C)(C)NCC(O)COc1cccc2[nH]c(=O)[nH]c12 (configuration not stated) | inactive: 13.1%
60 | O=C(NCc1ccccc1F)c1cc2ccccn2n1 | inactive: 13.9%
61 | Cc1ccc(CN2CCc3nc(N4CCN(c5ccccc5F)CC4)ncc3C2)s1 | inactive: -8.76%
62 | Cc1ccc(NC(=O)C2CCCN2S(=O)(=O)c2cccc3nsnc23)c(Br)c1 (configuration not stated) | inactive: -30.5%
63 | Cc1ccc2oc(=O)c3cc(C(=O)NCc4ccc(Cl)cc4)sc3c2c1 | inactive: -14.9%

Row | SMILES | activation
64 | Cc1cccc(-c2nc(C)c(CCNC(=O)C(=O)Nc3c(C)cc(C)cc3C)s2)c1 | inactive: -6.29%
65 | Cc1cc(SCC(=O)NCc2ccccc2Cl)nc(=O)[nH]1 | inactive: 11.4%
66 | COc1ccc(CNC(=O)c2ccc(NC(=O)N3CCCCc4ccccc43)cc2)c(OC)c1 | inactive: -0.254%
67 | Cc1ccc(-c2noc(CSc3nnc(C)n3-c3ccc(F)cc3)n2)cc1 | inactive: -9.46%
68 | Cc1cccc(C)c1NC(=O)CCS(=O)(=O)c1ccc2c(c1)n(C)c(=O)c(=O)n2C | inactive: 5.94%
69 | COc1ccc(-c2csc3nc(-c4ccc(F)cc4)oc(=O)c23)cc1OC | inactive: -2.86%
70 | Cc1cc(/C=C(\C#N)C(=O)Nc2ccccc2)c(C)n1-c1ccc(F)cc1 | inactive: -6.48%
71 | COC(=O)c1ccccc1NC(=O)c1sc2nc(C)cc(C)c2c1NC(=O)c1ccccc1Cl | inactive: -4.24%
72 | COc1ccc2c(CNCc3cccs3)c(C(=O)O)n(Cc3cccc(F)c3)c2c1 | inactive: 48.9%
73 | CCOC(=O)NNc1ccc(N(CC)CC(C)O)nn1 (configuration not stated) | inactive: 5.44%
74 | COc1ccc(NC(=O)c2cc(C(C)=O)n3ccccc23)cc1Cl | inactive: -7.12%
75 | CCOC(=O)c1cccc(NC(=O)C2CCN(S(=O)(=O)c3c(C)noc3/C=C/c3ccc(C)cc3)CC2)c1 | inactive: 0.183%
76 | CC(CNC(=O)c1ccc2nc(CCc3ccccc3)oc2c1)c1ccccc1 (configuration not stated) | inactive: -12.4%
77 | COc1ccc(NC(=O)c2ncoc2-c2ccco2)cc1Cl | inactive: 14.2%
78 | Cc1cccc(C(=O)Nc2ccc3nc(SCC(=O)N4CCc5ccccc54)sc3c2)c1 | inactive: 2.31%
79 | COc1ccc(OC)c(-c2nnc3n(CCc4ccccc4)c(=O)c4ccccc4n23)c1 | inactive: -0.955%
80 | COc1ccc(CNC(=O)Cn2ccc3cc(S(=O)(=O)N4CCCC4)ccc32)c(OC)c1 | inactive: 8.4%
81 | CCn1c(=O)n(-c2ccc3c(c2)OCO3)c2nc(-c3cc(OC)ccc3OC)nc(C(N)=O)c21 | inactive: 10.8%
82 | COc1ccc(CNC(=O)c2cc(C3CC3)nc3c2c(C)nn3-c2cccc(Cl)c2C)cc1 | inactive: -5.8%
